# In PubChem BioAssay (NCATS):
# Values joined by “and” are separate entries in the source; they are usually repeats but may differ in a detail not shown here. Equal values may be shown once. The inconclusive results got no clear call from the source; some entries with a clear call stand among them for comparison. Potencies beside an inconclusive call are fits to weak or partial responses and may not hold up. Active and inactive are the calls of the source. Calls come from the whole dose curve; as a rule, active = well fitted curve in the direction sought with a large enough effect; inconclusive = small, poorly fitted or top-dose-only effect, or another doubt; inactive = no such curve, though single readings can be large; an effect the other way counts as inactive or inconclusive.
# Assays:
# [1] = qHTS of pediatric cancer cell lines to identify multiple opportunities for drug repurposing: Primary screen for Saos-2 cells (AID 1347097); conditions: Saos-2 viability, CellTiter-Glo ATP luminescence, 48 h; activity change, negative = cytotoxic: at 46 µM (top of the series); note: nearly all actives have a fitted effect of over 40% in size
# Method in brief: (§1)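 500-1,000 cells/well; 5 h pre-incubation 37 °C/5% CO2; compound pinned; 48 h; CellTiter-Glo, 15 min RT; luminescence. MIPE 11-pt from 0.78 nM, NPC 8-pt from 0.59 nM final. Bortezomib 2.3 µM final as positive control.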
# [2] = qHTS of pediatric cancer cell lines to identify multiple opportunities for drug repurposing: Primary screen for SK-N-SH cells (AID 1347098); conditions: SK-N-SH viability, CellTiter-Glo luminescence, 48 h; activity change, negative = cytotoxic: at 57 µM (top of the series); note: nearly all actives have a fitted effect of over 65% in size
# Method in brief: (§2)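 Cells (500-1,000/well) rested 5 h, then received compounds for 48 h; metabolically active cells were measured by CellTiter-Glo luminescence. Final concentrations spanned up to 46 µM (MIPE, 11-point) or 0.59 nM-46 µM (NPC, 8-point) in primary screens, 11-point in follow-ups.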
# [3] = qHTS of pediatric cancer cell lines to identify multiple opportunities for drug repurposing: Primary screen for NB1643 cells (AID 1347099); note: nearly all actives have a fitted effect of over 50% in size
# Method in brief: as §1
# [4] = qHTS of pediatric cancer cell lines to identify multiple opportunities for drug repurposing: Primary screen for LAN-5 cells (AID 1347100); conditions: LAN-5 neuroblastoma viability, CellTiter-Glo luminescence, 48 h; activity change, negative = cytotoxic: at 46 µM (top of the series)
# Method in brief: (§3)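 Viability after 48 h compound treatment at 37C, 500-1,000 cells/well, read as ATP luminescence with CellTiter-Glo. Primary screens used 11-point (MIPE, 0.78 nM-46 µM) or 8-point (NPC, 0.59 nM-46 µM) final concentrations; follow-up screens used 11-point dilutions.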
# [5] = qHTS of pediatric cancer cell lines to identify multiple opportunities for drug repurposing: Primary screen for BT-12 cells (AID 1347101); note: nearly all actives have a fitted effect of over 25% in size
# Method in brief: as §2
# [6] = qHTS of pediatric cancer cell lines to identify multiple opportunities for drug repurposing: Primary screen for OHS-50 cells (AID 1347103); note: nearly all actives have a fitted effect of over 40% in size
# Method in brief: as §2
# [7] = qHTS of pediatric cancer cell lines to identify multiple opportunities for drug repurposing: Primary screen for RD cells (AID 1347104); note: nearly all actives have a fitted effect of over 55% in size
# Method in brief: as §1
# [8] = qHTS of pediatric cancer cell lines to identify multiple opportunities for drug repurposing: Primary screen for U-2 OS cells (AID 1347096); note: nearly all actives have a fitted effect of over 50% in size
# Method in brief: as §3
# [9] = qHTS of pediatric cancer cell lines to identify multiple opportunities for drug repurposing: Primary screen for Rh18 cells (AID 1347102); note: nearly all actives have a fitted effect of over 65% in size
# Method in brief: as §3
# Potency is the fitted concentration of half-maximal effect; tags give direction and shape of the fitted curve.
smiles,measurement,setting,value
COc1cc(C(=O)NC2CCN(C)CC2)ccc1Nc1ncc2c(n1)N(C1CCCC1)CCC(=O)N2C(C)C,Potency,[1],"inconclusive: 5.26 µM [cytotoxic, full curve]"
Cc1cc(=O)oc2cc(O)ccc12,Potency,[1],inactive
O=c1ccc2ccc(O)c(O)c2o1,Potency,[1],inactive
same,Potency,[2],"inconclusive: 17.1 µM [cytotoxic, partial curve]"
same,Potency,[3],"inconclusive: 14.8 µM [cytotoxic, partial curve, poor fit]"
same,Potency,[4],"inconclusive: 33.2 µM [cytotoxic, single point]"
same,Potency,[5],"inconclusive: 27.3 µM [cytotoxic, partial curve, poor fit]"
same,Potency,[6],"inconclusive: 30.6 µM [cytotoxic, single point]"
same,Potency,[7],"inconclusive: 18.7 µM [cytotoxic, partial curve]"
O=C(Nc1c(Cl)cncc1Cl)c1ccc(OC(F)F)c(OCC2CC2)c1,Potency,[1],"inconclusive: 14.8 µM [cytotoxic, partial curve, poor fit]"
same,Potency,[2],"inconclusive: 27.1 µM [cytotoxic, single point]"
same,Potency,[3],"inconclusive: 20.9 µM [cytotoxic, single point]"
COc1cc(NC(=O)c2ccc(-c3ccc(Cl)cc3)o2)cc(OC)c1,Potency,[8],"inconclusive: 18.7 µM [cytotoxic, partial curve, poor fit]"
same,Potency,[4],"inconclusive: 37.2 µM [cytotoxic, single point]"
same,Potency,[9],inactive
same,Potency,[7],"inconclusive: 20.9 µM [cytotoxic, partial curve]"
CNC(=O)c1cc(Oc2ccc(NC(=O)Nc3ccc(Cl)c(C(F)(F)F)c3)c(F)c2)ccn1,Potency,[8],active: 23.5 µM
same,Potency,[4],active: 20.9 µM
same,Potency,[5],active: 12.2 µM
same,Potency,[7],active: 16.6 µM
NC(=O)OCC(COC(N)=O)c1ccccc1,Potency,[1],"inconclusive: 20.9 µM [cytotoxic, partial curve] and inconclusive: 33.5 µM [cytotoxic, single point]"
CCCN[C@H]1CCc2nc(N)sc2C1,Potency,[8],inactive
same,Potency,[4],"inconclusive: 4.18 µM [cytotoxic, partial curve]"
same,Potency,[6],"inconclusive: 19.3 µM [cytotoxic, partial curve, poor fit]"
N#Cc1ccc(C(c2ccc(C#N)cc2)n2cncn2)cc1,Potency,[1],"inconclusive: 18.7 µM [cytotoxic, partial curve]"
same,Potency,[2],"inconclusive: 7.64 µM [cytotoxic, partial curve, poor fit]"
same,Potency,[3],"inconclusive: 14.8 µM [cytotoxic, partial curve, poor fit]"
same,Potency,[5],"inconclusive: 13.7 µM [cytotoxic, partial curve]"
same,Potency,[6],"inconclusive: 21.7 µM [cytotoxic, partial curve]"
same,Potency,[7],"inconclusive: 18.7 µM [cytotoxic, partial curve, poor fit]"
COc1ccc(-c2c(-c3ccc(O)cc3O)n[nH]c2C)cc1,Potency,[1],"inconclusive: 34 µM [cytotoxic, partial curve]"
same,Potency,[2],"inconclusive: 35 µM [cytotoxic, partial curve, poor fit]"
same,Potency,[3],"inconclusive: 67.9 µM [cytotoxic, single point]"
same,Potency,[4],"inconclusive: 42.9 µM [cytotoxic, partial curve]"
same,Potency,[5],"inconclusive: 39.5 µM [cytotoxic, partial curve]"
COc1nc(-c2ccc3c(c2)OCO3)n(-c2ccc(NC(=O)CSc3ccccc3)cc2)n1,Potency,[1],"inconclusive: 18.7 µM [cytotoxic, partial curve, poor fit]"
COc1ccc2c(c1)CC[C@H]1[C@@H]2CC[C@]2(C)[C@@H](NCCCCCCN3C(=O)C=CC3=O)CC[C@H]12,Potency,[1],"inconclusive: 18.7 µM [cytotoxic, partial curve]"
same,Potency,[2],"inconclusive: 38.3 µM [cytotoxic, single point]"
same,Potency,[3],"inconclusive: 8.33 µM [cytotoxic, partial curve, poor fit]"
same,Potency,[5],"inconclusive: 24.3 µM [cytotoxic, partial curve, poor fit]"
same,Potency,[6],"inconclusive: 17.2 µM [cytotoxic, partial curve]"
COCCNCCCn1c(C(=O)CF)c(-c2ccc(C)cc2)c2c(N)ncnc21,Potency,[1],"inconclusive: 11.8 µM [cytotoxic, partial curve]"
same,Potency,[2],"inconclusive: 7.64 µM [cytotoxic, partial curve]"
same,Potency,[3],"inconclusive: 7.43 µM [cytotoxic, partial curve]"
same,Potency,[9],"inconclusive: 9.35 µM [cytotoxic, partial curve]"
same,Potency,[6],"inconclusive: 17.2 µM [cytotoxic, partial curve]"
